Results from article doi:10.1101/2025.07.25.666771, “Importance of cysteines for the binding of S100A6 to the RAGE receptor – Towards a first molecular model for S100 covalent dimerization” (bioRxiv, 2025).

Experiments:
WT murine S100A6 = WT murine S100A6 (murine, UniProt P14069); experiment: SEC; 600 µg RAGE VC1C2 mixed with a 10-fold molar excess of S100A6 in 20 mM Tris-HCl pH 7.5, 200 mM NaCl, 5 mM CaCl2, 400 µl; 3 hours at 37°C; Superdex 75 Increase 10/300 GL at room temperature in 20 mM Tris-HCl pH 7.5, 200 mM NaCl; non-reducing; fractions analysed by SDS-PAGE; conditions: both partners purified
[1] = molecular target: S100A6 C3S-Y84C double mutant (murine, UniProt P14069, C3S | Y84C); experiment: as above; conditions: both partners purified

binding result (WT murine S100A6): binds | binding result [1]: binds
B1: human RAGE VC1C2 ectodomain (hRAGE-VC1C2; […]) (domain or fragment)
chain: not shown
notes: receptor for advanced glycation end-products (RAGE), human, VC1C2 ectodomain, […]; also called RAGE VC1C2 fragment; RAGE full-length ectodomain; source: recombinant; expression and purification as previously described [31]
